Assay results from the RNAGym collection of RNA variant scans (doi:10.7554/elife.90254).
Read counts are not given, so values of variants with three or more changes are uncertain.

B1: OR4K15 (parent)
chain: GUUAACGGUCAUAGGCCAUGGAAACUAGGAGCACCAUUUCGCUGCCAGUGAAGAAAUGAACAAAGAAAAUCUGGGCCAGGCAGGCAUCAAAAGAAAUAGUCUUGCGCUCAACCAGAAAGUCUGUAAUCAUUUUAAGGGUA

Variants of: B1
Experiment: self-cleavage, relative activity (ratio to wild type); higher = more cleavage; in vitro, sequencing; the parent is a self-cleaving ribozyme
With A60G A62G G137U the self-cleavage was 0.92. Variant A62G A78G A110U has a self-cleavage of 0.69. For A67G A78U G137A, the self-cleavage was 0.23. Variant A62U A90G U132C has a self-cleavage of 0.46. A67G A90G A134G gave a self-cleavage of 0.57. Work on A67G U100G A116C U122A A135G yielded a self-cleavage of 0.05. In the case of A66C A78G A89U A95G A118G, the self-cleavage is reported as 0.11. In the case of A62C U124C U130C, the self-cleavage is reported as 0.8. C61G A68G U127C showed a self-cleavage of 2.49. For A62G A63G G79A, the self-cleavage was 0.17. A67G U108C A129G showed a self-cleavage of 0.02. For A64G U97C A98G, the self-cleavage was 1.23. Variant A64G A69G C77U A110G has a self-cleavage of 0.38. A67G A111G U122C showed a self-cleavage of 0.01. With A62C A95G A111G A125G the self-cleavage was 0. With A62G A114G U127A the self-cleavage was 0.59. With A63G A89G U122C the self-cleavage was 1.14. With A63G A89G U122A the self-cleavage was 0.72. For A60G A86C A126C A129G, the self-cleavage was 0.61. With A63G A111G U127A the self-cleavage was 0.02. For A63G U122A A126G, the self-cleavage was 0.65. In the case of A60U A114G U122A, the self-cleavage is reported as 1.09. Variant A62G A86U U102C C128A U130C has a self-cleavage of 2.23. Variant A67G U103C C128U has a self-cleavage of 0.22. With A67G C88U A117U the self-cleavage was 0.54. A60G U87C A95G U102C showed a self-cleavage of 0.92. For A64G U122C U131C, the self-cleavage was 1.27. Variant A64G G104A A135G has a self-cleavage of 0.01. With A62U A110U U122G the self-cleavage was 0.94. Work on A63U A64G U120C yielded a self-cleavage of 1.63. With A63G A92G A116U the self-cleavage was 0.41. A68G A86G A96G showed a self-cleavage of 0.62. A66U U70C A140G gave a self-cleavage of 1.24. Variant A66G A91G A96U has a self-cleavage of 0.68. With A64G A68G A140U the self-cleavage was 0.9. Work on A66G U103A A111G yielded a self-cleavage of 0.02. With A60G A82G U122C the self-cleavage was 0.23. For A60G C112U U127C, the self-cleavage was 0.02. A63G G80C A91U A118G showed a self-cleavage of 0.15. In the case of A66G A69G U122A, the self-cleavage is reported as 0.55. A66U U87C U139C gave a self-cleavage of 1.4. With A66G U122C U139C the self-cleavage was 1.14. In the case of A63G A69U A91G U97C U122C, the self-cleavage is reported as 0.32. In the case of A67U A90G A116G, the self-cleavage is reported as 1.35. Work on C61A A64G U133A yielded a self-cleavage of 0.5. A60U A67G U122C gave a self-cleavage of 1.95. In the case of A60G A95G A96G U122C U130C U132C, the self-cleavage is reported as 0.85. With A60G A62G U87A A116G the self-cleavage was 0.12. In the case of A67G A89C U100C, the self-cleavage is reported as 1.83. A60G A62G A67G A82G A96G U131C gave a self-cleavage of 0.05. A62G A78U A89G U133C showed a self-cleavage of 0.29. In the case of A64G A66G U87C A116G, the self-cleavage is reported as 0.18. A60U C76A C81U A116G showed a self-cleavage of 0.06. A67G G75A A95G U108A showed a self-cleavage of 0.01. In the case of A66G A90G A98G U108A, the self-cleavage is reported as 0. A63U A69G U100A gave a self-cleavage of 1.75. A60G A89G C105U gave a self-cleavage of 0.09. A66G G79U A116G showed a self-cleavage of 0.03. For A64U A89G U124C U130C, the self-cleavage was 0.22. For A63G A98G A117G A126G, the self-cleavage was 0.22. Work on A66G C81U A126U yielded a self-cleavage of 0.43. For A62U A95C U127C, the self-cleavage was 0.55. With A63G A86U A111C A129G the self-cleavage was 0. Variant A63G U100C A114G has a self-cleavage of 0.95. Variant A60G A66G A114G has a self-cleavage of 0.24. A68G A82G A118G showed a self-cleavage of 0.38. In the case of A60G U72C A98G U139C, the self-cleavage is reported as 0.14. For A66G U87C U120C, the self-cleavage was 1.53. Work on A62G A67G U97C A114U yielded a self-cleavage of 0.05. A67C A69G U102C showed a self-cleavage of 1.59. In the case of A67G U87G U97C A140G, the self-cleavage is reported as 0.74. A60G A63G A64G C105A U124C gave a self-cleavage of 0.03. For A68G A82G U127C, the self-cleavage was 0.29. Work on A64U A92G U120C yielded a self-cleavage of 0.59. Work on A60G A64G A68G A96G C105G A110U yielded a self-cleavage of 0.01. A60U A62G U102C gave a self-cleavage of 2.25. Variant G65A C85U A95G U108C has a self-cleavage of 0.01. Work on A68G A78C A117G yielded a self-cleavage of 0.21. With A63U U72A U120G the self-cleavage was 0.17. For A67U U100C U130C, the self-cleavage was 2.91. For A67G A94G U103C, the self-cleavage was 1.37. A62G A92G A117G U130A gave a self-cleavage of 0.55. A67G U72C U87C A94G gave a self-cleavage of 0.31. A67U U70C U108A gave a self-cleavage of 0.03.
